47 compounds from PubChem BioAssay AID1963576 (National Center for Advancing Translational Sciences (NCATS), 2024) can be followed below.

Molecules are shown by their SMILES. About 60 (0.1%) of roughly 46,000 compounds were called active. Inconclusive results (about 3%) are left out. Calls come from the whole dose curve; as a rule, active = well fitted inhibition curve with a large enough effect; inconclusive = small, poorly fitted or top-dose-only effect; inactive = no such curve, though single readings can be large or run the other way. The list shows a part of the results.

This experiment is described as follows: Primary qHTS assay for Inhibitors of ovarian cancer metastasis using an organotypic tumor microenvironment (TME) model.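 For activity change, negative = inhibition: plate controls were DMSO wells for no effect and tomatine positive control wells for full effect.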 Note: nearly all actives have a fitted effect of over 65% in size. The following applies: SKOV3ip1-GFP adhesion/invasion on 3D omental model, fluorescence; series mostly up to 45.8 µM; activity change, negative = inhibition: at the top concentration. The gist of the method: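 A 3D layer of primary human omental fibroblasts, mesothelial cells, fibronectin and collagen I, grown 48 hr, received SKOV3ip1-GFP cells in serum-free medium plus compounds at 0.36-46 umol/L. After 2 hr RT and 16 hr 37 C, fixed adherent GFP cells were counted; normalized to DMSO and tomatine.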
(In general: In qHTS, concentration-response curves come from the screen itself.)
On to `O=C(Nc1ccccc1C(=O)OCc1cc(=O)n2c3c(sc2n1)CCCC3)c1cccc(Cl)c1`, for which the result was inactive.
The same measure, in the same setting: in the case of `CCc1ccccc1NC(=O)NCc1ccc2c(c1)CCN2C(=O)c1ccccc1` it was “inactive”.
For the compound `Cc1cccc(C)c1Nc1c(-c2ccsc2)nc2ccc(Cl)cn12`, the “activity change, negative = inhibition” value is inactive: 6.21%.
Take `CC(C)Cn1cc(NC(=O)N2CCN(c3ccccc3F)CC2)c2ccccc2c1=O`: the compound was called inactive.
As to `CCOC(=O)CC(NC(=O)N1CCC(CN2CCC(C)CC2)CC1)c1ccccc1` (configuration not stated), the “activity change, negative = inhibition” value is inactive: 4.97%.
With `Cc1cc(C)nc(NS(=O)(=O)c2ccc(NC(=O)COc3ccc(C(C)(C)C)cc3)cc2)n1`, the “activity change, negative = inhibition” value was inactive: -2.63%.
Turning to `COC(=O)c1cc2oc3ccccc3c2n1Cc1cc(C)ccc1C`, the outcome was inactive.
On to `COC(c1ccccc1)(c1ccccc1)[C@H](Oc1nc(C)cc(C)n1)C(=O)O`, for which the “activity change, negative = inhibition” value is inactive: 4.58%.
Regarding `Cc1ccccc1CSc1nc2c(sc3ccccc32)c(=O)n1CCCOC(C)C`, the “activity change, negative = inhibition” value is inactive: 1.77%.
Same read-out and setting: in the case of `O=c1c(N2CCN(c3cccc(C(F)(F)F)c3)CC2)csc2ccc(Cl)cc12` it was inactive: 2.34%.
In the case of `COc1cc(OC)cc(N2CCN(S(=O)(=O)c3ccc(-n4cnnn4)cc3)CC2)c1`, the “activity change, negative = inhibition” value is inactive: -2.17%.
Take `Cc1cccc(CNC(=O)CCn2ccc3cc(S(=O)(=O)N4CCCC4)ccc32)c1`: the “activity change, negative = inhibition” value was inactive: -3.57%.
As for `COc1ccc(-c2cn3nc(N4CCCC(C(=O)NCc5ccccc5Cl)C4)sc3n2)cc1` (configuration not stated), the compound was called inactive.
In the case of `COc1ccc(OC)c(CCNC(=O)c2cnn(-c3ccccc3)c2C2CCN(C(=O)OC(C)(C)C)CC2)c1`, the “activity change, negative = inhibition” value was inactive: 13.2%.
Same read-out and setting: in the case of `CCSc1nnc2c(n1)OC(CC)N(C(C)=O)c1ccccc1-2` (configuration not stated) it was inactive: 10.3%.
On to `Cc1ccc(-n2nnnc2CNC(=O)C(C)C)cc1C`, for which the “activity change, negative = inhibition” value is inactive: -54%.
As for `CC(=O)c1cccc(NC(c2ccc(F)cc2)c2nnc(-c3ccccc3)o2)c1` (configuration not stated), the “activity change, negative = inhibition” value is inactive: -1.06%.
As to `CCN1CCN(C(c2cccc(F)c2)c2c(O)cc(C)n(Cc3ccco3)c2=O)CC1` (configuration not stated), the call was inactive.
Turning to `O=C1CC(c2ccccc2)Cc2[nH]c(=O)c(-c3nc(-c4ccc(Cl)cc4)cs3)cc21` (configuration not stated), the “activity change, negative = inhibition” value is inactive: -27.2%.
On the same count and under the same terms, in the case of `Cc1nn(C)c2c1c(-c1ccccc1)cc(=O)n2C(C)C(=O)NCc1ccc(F)cc1` (configuration not stated) it was inactive: 0.0038%; in that of `CC(O)C1C(=O)N2C(C(=O)O)=C(SC3CNC(C(=O)N(C)C)C3)C(C)C12` (configuration not stated), inactive: -4.41%; in that of `CCOCc1cc(CN2CCN(c3cccc(Cl)c3)CC2)c(O)c2ncccc12`, inactive: -9.21%.
As to `CCCN(CCC)C(=O)CSc1nc2sc3c(c2c(=O)n1-c1ccccc1)CCN(C(C)=O)C3`, the result was inactive.
Turning to `CCc1ccccc1NS(=O)(=O)c1ccc2c(c1)OCC(C(=O)N1CCCC1)O2` (configuration not stated), the “activity change, negative = inhibition” value is inactive: 21%.
In the case of `CC(=O)Nc1cccc(NC(=O)c2c(-c3ccccc3)c(-c3ccccc3)nn(C)c2=O)c1`, the compound was classed as inactive.
Consider `CCN(Cc1ccccc1)Cc1c(O)ccc2c(=O)c(-c3ccccc3Cl)c(C(F)(F)F)oc12`, for which the “activity change, negative = inhibition” value is inactive: 1.28%.
With `CCc1ccc(Nc2nc(N)nc(CSc3nc4ccccc4s3)n2)cc1`, the “activity change, negative = inhibition” value is inactive: -15%.
`COc1ccc(OC)c(C2c3c(oc4ccc(C)cc4c3=O)C(=O)N2CCCN(C)C)c1` (configuration not stated): the “activity change, negative = inhibition” value is inactive: -6.07%.
The same measure, in the same setting: in the case of `O=C(NCc1cccc(F)c1)c1cccc(NC(=O)c2nsc3ccccc23)c1` it was inactive: -2.48%; in that of `O=C(NCCC1=CCCCC1)c1ccc2c(c1)ncn2-c1ccc(F)c(F)c1`, inactive: -7.55%.
In the case of `O=c1c2c(-c3ccc(Cl)cc3)ccnc2[nH]n1-c1ccccc1`, the compound was called inactive.
For the compound `CC(=O)c1ccc(N2CCN(S(=O)(=O)c3ccc4[nH]c5c(c4c3)CCCC5)CC2)cc1`, the “activity change, negative = inhibition” value was inactive: -2.91%.
As to `CCC(C(=O)Nc1cc(-c2nc3cccnc3s2)ccc1C)c1ccccc1` (configuration not stated), the “activity change, negative = inhibition” value is inactive: 1.42%.
Consider `Cc1ccc(Cl)cc1NC(=O)Cn1c(=O)c2ccccc2n2nncc12`, for which the result was inactive.
On to `CCOc1ccccc1C1CC(=O)Oc2c1c(=O)n(C)c1ccccc21` (configuration not stated), for which the “activity change, negative = inhibition” value was inactive: 3.76%.
Still for that read-out and setting: in the case of `CCOc1ccc(-c2nnc(SCC(=O)NCc3ccc(C)cc3)nc2-c2ccc(OCC)cc2)cc1` it was inactive: -7.11%.
As to `CCC(CC)C(=O)Nc1cccc(-c2nc3ccccc3s2)c1`, the outcome was inactive.
Take `Fc1ccc(-c2cn3cc(Cc4ccc(Cl)cc4)sc3n2)cc1`: the “activity change, negative = inhibition” value is inactive: 10.3%.
On to `CCc1ccc(-n2nc3ccc(NC(=O)c4ccc(C#N)cc4F)cc3n2)cc1`, for which the compound was called inactive.
Same read-out and setting: in the case of `COc1cccc(CNC(=O)C2CCN(c3nnc(-n4c(C)ccc4C)s3)CC2)c1` it was “inactive”.
As to `CCOC(=O)CSc1nc2ccc(NC(=O)c3ccccc3F)cc2s1`, the “activity change, negative = inhibition” value was inactive: 6.49%.
The same measure, in the same setting: in the case of `COC(=O)c1ccc2c(=O)n(CCCCCC(=O)N3CCN(c4ccc(OC)cc4)CC3)c(=O)[nH]c2c1` it was inactive: 10.8%; in that of `CCOC(=O)c1sc(NC(=O)c2cc(-c3ccc(F)cc3)on2)c(C(=O)OCC)c1C`, inactive: 0.176%.
In the case of `Cc1ccc(NC(=O)C2CCCN(S(=O)(=O)c3cccc4cccnc34)C2)c(C)c1` (configuration not stated), the “activity change, negative = inhibition” value was inactive: 13.4%.
For `Cc1c(CC(=O)NCCc2ccc(Cl)cc2)c(=O)oc2c(C)c3occ(C(C)(C)C)c3cc12`, the “activity change, negative = inhibition” value is inactive: 6.57%.
Regarding `CCOC(=O)c1c(-c2ccccc2)csc1NC(=O)c1cc(-c2ccc(Cl)cc2)on1`, the “activity change, negative = inhibition” value was inactive: -3.24%.
Turning to `CC1=C(C(=O)Nc2ccc(C)cc2C)C(c2ccccc2)n2ncc(C(=O)Nc3ccccc3)c2N1` (configuration not stated), the “activity change, negative = inhibition” value is inactive: 1.19%.
